Data published in the RNAGym collection of RNA variant scans (doi:10.1073/pnas.2313332121).
Variants at the background level are over-represented here.

B1: TPR 5TU (parent)
chain: GGAUCUUCUCGAUCUAACAAAAAAGACAAAUCUGCCACAAAGCUUGAGAGCAUCUUCGGAUGCAGAGGCGGCAGCCUUCGGUGGCGCGAUAGCGCCAACGUUCUCAACUAUGACACGCAAAACGCGUGCUCCGUUGAAUGGAGUUUAUCAUG

Variants of: B1
Test: polymerase ribozyme fitness, log enrichment relative to wild type (log ratio); higher = more active; in vitro selection for triplet polymerase activity
Procedure, shortened: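 One round of in vitro selection, in triplicate, was applied to PCR-built, transcribed mutant libraries of each subunit of a heterodimeric triplet polymerase ribozyme. The steps were annealing with a biotinylated primer, partner subunit and triplets, incubation frozen at −7 °C, gel excision of extended constructs, streptavidin-bead capture and RT-PCR. Fitness is the logarithm, base 2, of genotype enrichment over wild-type enrichment from inverse-variance-weighted replicate averages of Illumina-sequenced inputs and outputs, keeping genotypes with ≥10 input reads and ≥1 read per output.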

| Variant | polymerase ribozyme fitness (log ratio) |
| --- | --- |
| C57U C76G A115C A150G | ≤ -4.2 |
| C57U C76U A91U C93G C132A | ≤ -4.2 |
| C57U C76U A98G | -0.421 |
| C57U C79A A110C | ≤ -4.2 |
| C57U C79A C132A A150C | ≤ -4.2 |
| C57U C85A C108U | ≤ -4.2 |
| C57U C85U C87U U144G | -0.0249 |
| C57U C85U C96U U127G A150U | ≤ -4.2 |
| C57U C87G G88U C95G C116U C123A U134C | ≤ -4.2 |
| C57U C93G G100A U109A C114G | ≤ -4.2 |
| C57U C95A G136A | -0.1 |
| C57U C95G A120G G143A | -2.18 |
| C57U C95G U151C | ≤ -4.2 |
| C57U C103G | -1.7 |
| C57U C118U U139C | ≤ -4.2 |
| C57U C123G C129A G140C | ≤ -4.2 |
| C57U G58C G70A G84C | ≤ -4.2 |
| C57U G59A G67C G94C G140U | ≤ -4.2 |
| C57U G59C C93A U135G | ≤ -4.2 |
| C57U G59U C96U C125G G143C U146C | ≤ -4.2 |
| C57U G62A G92A A115C G133A G141C | ≤ -4.2 |

| Variant | polymerase ribozyme fitness (log ratio) |
| --- | --- |
| C57U G67A C79G C85U A110C A150G | ≤ -4.2 |
| C57U G67C G71A U82G C87G U104A U139G A142G | ≤ -4.2 |
| C57U G68U U77A G94A C116U G140A | ≤ -4.2 |
| C57U G71C G83A G86A A98U A107U U127G G133C | ≤ -4.2 |
| C57U G71C G84A A119C G124C | ≤ -4.2 |
| C57U G71C G92A A150C | ≤ -4.2 |
| C57U G80A | -0.314 |
| C57U G81C A106U | -1.74 |
| C57U G81C C129U G141A | ≤ -4.2 |
| C57U G83A C99A | -2.32 |
| C57U G83C U101G A106C G128U | ≤ -4.2 |
| C57U G83U U139C G143A A147G | ≤ -4.2 |
| C57U G84C C99U A122G C149U | ≤ -4.2 |
| C57U G84U C125U U151A | ≤ -4.2 |
| C57U G86A A120G G141C | -2.82 |
| C57U G86A C99G | -3.33 |
| C57U G88C G140U | ≤ -4.2 |
| C57U G92A U104G C116U | ≤ -4.2 |
| C57U G100A C118A | ≤ -4.2 |
| C57U G100U C149A | ≤ -4.2 |
| C57U G117C A122G | 0.204 |

| Variant | polymerase ribozyme fitness (log ratio) |
| --- | --- |
| C57U G124U G128U | -3.76 |
| C57U U61A C72G | ≤ -4.2 |
| C57U U61A C79A G92C | ≤ -4.2 |
| C57U U61A C87A C96U | ≤ -4.2 |
| C57U U61A C103G A115U A137U | ≤ -4.2 |
| C57U U78A G83A U102G | ≤ -4.2 |
| C57U U78A G92U | ≤ -4.2 |
| C57U U101A A107C | ≤ -4.2 |
| C57U U102G | -1.87 |
| G58A A64C C85G C93G C96U U104G | ≤ -4.2 |
| G58A A64U G92C | ≤ -4.2 |
| G58A A66G C87U A115C | ≤ -4.2 |
| G58A A73G G88C A150U | ≤ -4.2 |
| G58A A73U C96U | -0.178 |
| G58A A89G A110G C116G | ≤ -4.2 |
| G58A A91G G136U | ≤ -4.2 |
| G58A A91U C116U A138C | ≤ -4.2 |
| G58A C63A C72G G84C G88U G126C G133A | ≤ -4.2 |
| G58A C69G C96G A110G A113C G140A A150C | ≤ -4.2 |
| G58A C72U A89C C95U G126U G141C U145A C149A | ≤ -4.2 |
| G58A C72U C76G C99G A110C | ≤ -4.2 |

| Variant | polymerase ribozyme fitness (log ratio) |
| --- | --- |
| G58A C76A C87U A115U G141C | ≤ -4.2 |
| G58A C76U U101G | 0.481 |
| G58A C79A C85U A147C | ≤ -4.2 |
| G58A C79A C87A A89U | ≤ -4.2 |
| G58A C79U | -1.65 |
| G58A C85A C108A | ≤ -4.2 |
| G58A C85A C125U G143C | ≤ -4.2 |
| G58A C85G A115G | -2.89 |
| G58A C85U A106G | -0.0661 |
| G58A C87A | ≤ -4.2 |
| G58A C87A A91C C99U | ≤ -4.2 |
| G58A C87G A142C | ≤ -4.2 |
| G58A C87G C116A A147C U151A | ≤ -4.2 |
| G58A C87G U101C A113U C131G | ≤ -4.2 |
| G58A C95U | -0.535 |
| G58A C95U G143C | -1.9 |
| G58A C96U | 0.538 |
| G58A C105G G124U U135G | ≤ -4.2 |
| G58A C149A | -3.67 |
| G58A G59A A66U C93U A97C | ≤ -4.2 |
| G58A G59A C108A C132U | ≤ -4.2 |
